# Results as given in PubChem BioAssay AID1865 (National Center for Advancing Translational Sciences (NCATS), 2009).
# In all, about 280,000 compounds went through this assay and about 540 (0.19%) were called active. Roughly 2% stayed inconclusive and do not appear here. Calls come from the whole dose curve; as a rule, active = well fitted activation curve with a large enough effect; inconclusive = small, poorly fitted or top-dose-only effect; inactive = flat fitted curve, though single readings scatter. The list shows a part of the results, in another mix than the full data.
# Assay: Quantitative High-Throughput Screen for Regulators of Epigenetic Control; note: nearly all actives have a fitted effect of over 60% in size; for GFP activation: % of control where 0% means no effect
# Details: murine LDR cells, GFP reporter derepression, 30 h; series mostly up to 53.9 µM; GFP activation: at the top concentration
# Summary of the method: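 Readout is the number of GFP-expressing murine LDR cells, counted by cytometry following washing. Cells were treated with compound for 30 h at 37 C; the stably integrated CMV-GFP locus is normally silent.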
# Potency is the fitted concentration of half-maximal effect.
SMILES,GFP activation,Potency
CCCCCOC(=O)CSc1nnc(-c2cc(OC)c(OC)c(OC)c2)o1,inactive: -3.17%,–
Cc1ccc(NC(=O)c2sc3nc(-c4ccncc4)ccc3c2N)cc1,–,active: 22.4 µM
CCCn1nc(Oc2nc(SC)nc(N(C)C)n2)ccc1=O,inactive: -6.15%,–
O=[N+]([O-])/C(C(Cl)=C(Cl)Cl)=C(\Sc1ccccc1)N1CCCCC1,inactive: -3.86%,–
Cc1ccc2nc3sc(C(=O)NCc4ccco4)c(N)c3cc2c1,–,active: 15.8 µM
O=[N+]([O-])c1ccc(/C=N/NC(=S)Nc2ccc(Cl)cc2Cl)s1,–,active: 22.4 µM
Cc1cccc(NC(=O)c2ccc(NCCc3ccccc3)c([N+](=O)[O-])c2)c1,–,active: 17.8 µM
COc1ccccc1C(=O)N1CCN=C1c1ccccc1,inactive: -0.877%,–
O=C(Nc1cccc(C(F)(F)F)c1)/C(=C/c1ccco1)NC(=O)c1cccs1,inactive: 0.862%,–
Cc1ccccc1NC(=O)Cn1c(=O)n(Cc2ccccc2)c(=O)c2c(C)c(C)sc21,inactive: 7.96%,–
O=c1c(O)c(-c2cc(O)c(O)c(O)c2)oc2cc(O)cc(O)c12,–,inactive
Cc1cc(NC(=O)Nc2cccc3ccccc23)no1,inactive: -1.08%,–
CCCCCCCCCCCCC/C=C\[C@@H](O)[C@H](CO)NC(C)=O,inactive: 0.424%,–
Oc1c(I)cc(I)c2cccnc12,inactive: -0.962%,–
Cc1n[nH]c(=O)nc1NCCN(C)C,inactive: -3.37%,–
O=C1S/C(=C\c2ccc(N3CCOCC3)o2)C(=O)N1c1ccccc1,–,active: 14.1 µM
COc1ccc(NC(=O)CSc2nnc(-c3ccccc3Cl)n2Cc2ccco2)c(OC)c1,inactive: 2.83%,–
Cc1cc2c(N=O)c(NO)ccc2[nH]1,–,active: 15.8 µM
COc1cc(CN(C)CCc2ccccn2)cc(OC)c1OC,inactive: -16.9%,–
CC(C)N(C=O)C1(C(=O)NC2CCCCC2)CCCCC1,inactive: -17.5%,–
c1ccc(Cn2ncc3c(NCc4ccco4)ncnc32)cc1,inactive: -11.1%,–
COc1ccc(CCNC(=O)c2nnc(Cc3ccc(Cl)cc3)o2)cc1OC,inactive: 2.19%,–

SMILES,GFP activation,Potency
O=C(NC1CCCCC1)N1CCC(c2nc3ccc(Cl)cc3[nH]2)CC1,inactive: 7.3%,–
CCC(OC(=O)c1cccs1)C(=O)NCc1ccco1 (stereo unspecified),inactive: -4.05%,–
CCOC(=O)/C(C#N)=C/c1ccc(OC)c(OC)c1,inactive: -0.0795%,–
COc1cc(C)nc(Nc2nc(C)c(C(C)=O)s2)n1,inactive: -6.8%,–
CCN1CCc2c(C#N)c(N3CCCCC3)nc(N3CCOCC3)c2C1,inactive: -7.69%,–
CCc1ccccc1NC(=O)CN1C(=O)C2CCCN2c2ncc(Cl)cc21 (stereo unspecified),inactive: -0.971%,–
CC(=O)n1cc([C@H]2C=C(C(=O)NCc3ccccc3)O[C@@H](OCc3ccc(CO)cc3)C2)c2ccccc21,inactive: -2.04%,–
Cc1cc(C)c2cc(CN(Cc3ccco3)C(=O)NCc3ccccc3)c(=O)[nH]c2c1,inactive: -1.75%,–
COc1ccc(OC)c(NS(=O)(=O)c2ccc(Br)s2)c1,inactive: 1.77%,–
O=C(NCCC1=CCCCC1)C1CCN(C(=O)Nc2ccccc2)CC1,inactive: -14.3%,–
CCO/C=C1\C(=O)N(CC)c2ccccc21,inactive: -1.04%,–
O=C(NCC(=O)N1CCCC1C(=O)O)OC1CCCCC1 (stereo unspecified),inactive: 1.28%,–
O=S(=O)(c1cccc2nsnc12)N1CCN(C/C=C/c2ccccc2)CC1,inactive: -0.223%,–
CCCCn1c(SCC(=O)Nc2ccc(OC)cc2)nc2ccc(N3CCOCC3)cc2c1=O,inactive: -12.7%,–
CCOC(=O)N1CCC(NC(=O)CCC(=O)N2CC(C)Oc3ccc(Cl)cc32)CC1 (stereo unspecified),inactive: -12.7%,–
CCCn1c(C(C)NC(C)=O)nc2ccccc21 (stereo unspecified),inactive: 0%,–
O=S(=O)(NCC(Nc1ccc(Cl)cc1)c1ccccc1)c1ccccc1 (stereo unspecified),inactive: -0.943%,–
O=C1C=C(Nc2ccc(Cl)cc2)C(=O)N1c1ccc(Cl)cc1,–,active: 10 µM
C=CCn1c(O)c(N=NC(=O)CNC(=O)/C=C/c2ccco2)c2ccccc21,inactive: 0%,–
N=C(N)S/C=C\C(=O)O,inactive: 8.42%,–
CCOC(=O)c1nn(-c2ccc(Cl)cc2Cl)c(=N)c(C#N)c1C,–,active: 11.2 µM
OC[C@H]1O[C@@H](n2cnc3c(NCc4ccco4)ncnc32)[C@H](O)[C@@H]1O,–,inactive

SMILES,GFP activation,Potency
CCC(=NCc1ccccc1)C1=C(O)C(C(=O)OC)C(C)(C)CC1=O (stereo unspecified),inactive: -11.9%,–
COc1ccccc1OC(C)C(=O)Nc1ccc(-c2nc3ccccc3s2)cc1 (stereo unspecified),–,active: 35.5 µM
CCc1ccc(NC(=O)CSc2nnc(CC)c(CC)n2)cc1,inactive: -3.39%,–
Cc1nc(N)c(C#N)c(-c2ccccc2)c1C,inactive: -7.23%,–
CCC(C)NC(=O)c1c(N)n(/N=C/c2ccccn2)c2nc3ccccc3nc12 (stereo unspecified),inactive: -0.243%,–
Cc1onc(-c2ccccc2)c1C(=O)N1CCOCC1,inactive: -0.877%,–
CSc1ccccc1NC(=O)CN(c1ccccc1)S(=O)(=O)N(C)C,inactive: 2.56%,–
CN1CCc2c(sc(NC(=O)CSc3ccc(F)cc3)c2-c2nc3ccccc3s2)C1,–,active: 3.16 µM
O=C(CCN1C(=O)/C(=C/C=C/c2ccccc2)SC1=S)Nc1ccccn1,–,active: 14.1 µM
CCC1=C2CC[C@H]3C(=O)N(c4ccccc4)C(=O)[C@H]3[C@H]2[C@@]2(C)C(=NCc3ccccc3)OC(=O)N2C1=O,inactive: 0.524%,–
CC(=O)[C@H](CC(C)C)NC(=O)[C@@H](CC(C)C)NC(=O)[C@H](CC(C)C)NC(=O)OCc1ccccc1,–,active: 5.01 µM
Cc1occc1C(=O)N/N=C/C(Br)=C\c1ccccc1,inactive: 4.11%,–
CCCCCCCCCCCCCCC[C@H](O)[C@@H](N)CO,–,inactive
COC1/C=C/OC2(C)Oc3c(C)c(O)c4c(O)c(c(/C=N/N5CCN(C)CC5)c(O)c4c3C2=O)NC(=O)/C(C)=C/C=C/C(C)C(O)C(C)C(O)C(C)C(OC(C)=O)C1C (stereo unspecified),inactive: 3.12%,–
CC(=O)CC1OC(=O)C(Br)=C1NCc1ccccc1 (stereo unspecified),–,active: 7.94 µM
CCOC(=O)C(C)Sc1nc2c(c(=O)[nH]c(=O)n2C)n1Cc1ccc(Cl)cc1 (stereo unspecified),inactive: 0%,–
Cc1cc(=O)oc2c1c(C)nn2-c1ccc(C(=O)OC(C)C)cc1,inactive: 0%,–
CC(=O)Nc1ccc(NS(=O)(=O)c2cn(C)c(=O)n(C)c2=O)cc1,inactive: 0.901%,–
Cc1ccc2nc(-c3ccccn3)cc(C(=O)Nc3ccc4c(c3)OCO4)c2c1,–,active: 15.8 µM
C/C=C(/C)C(=O)OC1Cc2c(ccc3ccc(=O)oc23)OC1(C)C (stereo unspecified),inactive: 1.49%,–
CCN(CC)c1ccc2cc(-c3nc(-c4ccccc4)no3)c(=O)oc2c1,–,active: 14.1 µM
CN(CC(=O)NC1CCCCC1)S(=O)(=O)c1ccc(Cl)cc1,inactive: 0%,–
